Assay results: PubChem BioAssay AID1477 (National Center for Advancing Translational Sciences (NCATS), 2009)
Screen size: about 230,000 compounds; fewer than 10 were called active. Inconclusive means that the source gave no clear call. Such entries were picked first, then a sample of the others. Calls follow the shape of the dose curve; as a rule, active = well fitted curve in the direction sought with a large enough effect; inconclusive = small, poorly fitted or top-dose-only effect, or effect the other way, or another doubt; inactive = no such curve, though single readings can be large or run the other way. No potency is given beside an inconclusive call; the fits are too rough.

Target: Runt-related transcription factor 1 (Homo sapiens) + Core-binding factor subunit beta (Homo sapiens) (UniProt Q01196+Q13951)
Test: qHTS Assay for Compounds Blocking the Interaction Between CBF-beta and RUNX1 for the Treatment of Acute Myeloid Leukemia
Settings: AlphaScreen CBFb-His/RUNX1-biotin binding, biochemical; series mostly up to 59.8 µM
Source text: NIH Chemical Genomics Center [NCGC]
NIH Molecular Libraries Probe Production centers Network [MLPCN]
Assay Submitter (PI): Paul Liu
Core Binding Factor (CBF) abnormalities are associated with 20-25% of all acute myeloid leukemias (AML), of which 5-10% are further sub classified as acute myelomonocytic leukemia with eosinophilia, also known as M4Eo in the FAB classification scheme. This subtype of leukemia is usually associated with chromosome 16 inversion (p13:q22). Chromosome 16 inversion results in formation of the fusion oncogene CBFB-MYH11, which encodes the fusion protein CBF-beta-SMMHC.
It has been hypothesized that the interference of CBF-beta and RUNX1 binding could have therapeutic implications for patients with CBF mediated leukemias. We developed a CBF-beta and RUNX1 binding assay in AlphaScreenTM format and optimized it for high throughput screening to search for inhibitors. The goal of this project is to screen MLPCN's compound collection (MLSMR) for identifying the inhibitors of the interaction between CBF-beta and RUNX1 proteins as research probes. If these probes work well in the animal models, the ultimate goal of this project is to development a new drug treatment for this disease.
This assay can not be used to assess how apparent inhibitors interfere with protein binding, and whether inhibitors specifically bind to either protein. Disruption of this protein-protein interaction, through any mechanism, is the intended target activity.
NCGC Assay Protocol Summary:
Step, Parameter, Description
(1) Reagent, 3 uL CBFb-His/RUNX1-biotin mix incubated together for 20 minutes at room temperature (30 nM each)
(2) Compound or control, 23 nL compound stock solution
(3) Incubation, 15 minutes at Room temperature
(4) Reagent, 1 uL 50 ng each of beads (Nickel beads and streptavidin beads)
(5) Incubation, 90 minutes at Room temperature
(6) Detection, Excitation=365 nm Emission=440 nm, Envision reader in AlphaScreenTM mode
Keywords: MLSMR, MLPCN, NIH Roadmap, qHTS, NCGC, Core binding factor, CBF, CBF-beta, Acute myeloid leukemia

UniProt Q01196, sequence (Q01196 whole entry, looked up): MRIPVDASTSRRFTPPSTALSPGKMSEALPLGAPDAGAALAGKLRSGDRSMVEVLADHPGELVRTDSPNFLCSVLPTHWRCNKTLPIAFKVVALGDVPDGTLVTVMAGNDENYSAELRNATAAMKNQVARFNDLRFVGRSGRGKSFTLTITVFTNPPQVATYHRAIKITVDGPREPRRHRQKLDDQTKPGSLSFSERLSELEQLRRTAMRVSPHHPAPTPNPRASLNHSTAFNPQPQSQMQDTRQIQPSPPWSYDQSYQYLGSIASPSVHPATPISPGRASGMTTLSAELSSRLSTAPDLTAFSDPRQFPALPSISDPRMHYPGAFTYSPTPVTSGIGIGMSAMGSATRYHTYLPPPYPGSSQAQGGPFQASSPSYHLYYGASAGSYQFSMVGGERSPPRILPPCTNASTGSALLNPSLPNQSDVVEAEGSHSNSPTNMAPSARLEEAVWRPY
UniProt Q01196, sequence (Q13951 whole entry, looked up): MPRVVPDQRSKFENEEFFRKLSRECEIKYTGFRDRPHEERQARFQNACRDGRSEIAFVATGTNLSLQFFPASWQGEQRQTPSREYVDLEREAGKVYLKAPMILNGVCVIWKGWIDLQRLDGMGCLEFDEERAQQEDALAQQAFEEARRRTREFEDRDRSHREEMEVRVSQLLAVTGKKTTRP

Compound	Potency
CCOC(=O)c1ccc(NC(=O)CC2S/C(=N/N=C3/NC(=O)CS3)NC2=O)cc1 (stereo unspecified)	inconclusive [activator, single point]
C#CC(=O)N(c1cc(OC)ccc1OC)C(C(=O)NC1CCCC1)c1cccs1 (stereo unspecified)	inactive
COc1ccccc1N1CCN(C(=O)c2ccc3nc(-c4ccco4)c(-c4ccco4)nc3c2)CC1	inconclusive [inhibitor, single point]
Cc1ccc(C(=O)c2ccc([N+](=O)[O-])cc2)c(C)c1	inconclusive [inhibitor, single point]
O=C(OCc1csc(-c2ccccc2)n1)c1ccccc1O	inconclusive [activator, partial curve]
CCN(Cc1ccccc1)c1ccc(/C=C(\C#N)c2ccccn2)cc1	inactive
COC(=O)CCCC1=CC2=C(c3ccccc3)C(=O)C(C)(OC(=O)C3CCCC3)C(=O)C2=CN1Cc1ccc2c(c1)OCO2 (stereo unspecified)	inconclusive [inhibitor, single point]
O=C(COc1ccc([N+](=O)[O-])cc1)Nc1nnc(-c2cccnc2)s1	inconclusive [inhibitor, single point]
CCc1nn2c(N)c(/C=C3\C=Nc4ccccc43)c(=O)nc2s1	inconclusive [activator, single point]
COc1ccc(CCNc2ccc(S(=O)(=O)N3CCCC3)cc2[N+](=O)[O-])cc1	inconclusive [inhibitor, partial curve]
CCCCn1c(NC(=O)c2ccccc2)c(C#N)c2nc3ccccc3nc21	inconclusive [inhibitor, partial curve, poor fit]
COc1cc(NC(=O)c2cccc(C)c2)c(OC)cc1NC(=O)CN1CCCCC1	inactive
O=C(c1cc2ncc(Br)cn2n1)N1CCOCC1	inactive
COc1cc(CNC(=O)CCCC/C=C/C(C)C)ccc1O	inconclusive [activator, partial curve, poor fit]
COc1ccc(OC)c(NC2c3ccccc3C(=O)N2Cc2ccc3c(c2)OCO3)c1 (stereo unspecified)	inconclusive [inhibitor, single point]
FC(F)(F)c1ccc(/C=N/NC(=S)NC2CCCCC2)cc1	inactive
COc1ccc(NC(=O)C2C3C=CC(C3)C2C(=O)NCc2ccco2)cc1 (stereo unspecified)	inactive
O=C(Nc1sc2c(c1C(=O)O)CCCCC2)c1ccco1	inactive
O=C(CC1SC(=O)N(c2ccccc2)C1=O)Nc1cccc2ccccc12 (stereo unspecified)	inconclusive [inhibitor, single point]
COc1cccc(C(=O)CN2CCN(S(=O)(=O)c3cccc([N+](=O)[O-])c3)CC2)c1	inactive
O=C(NCc1cccs1)C1CCN(c2nccs2)CC1	inconclusive [inhibitor, single point]
O=C(/C=C/c1ccco1)N(c1ccccn1)c1ccccn1	inconclusive [inhibitor, single point]
CC(C)(C)C(=O)NC1CCN(S(C)(=O)=O)CC1	inactive

Compound	Potency
Cc1ccc(NC(=O)c2cccs2)cc1NC(=O)c1cccnc1	inconclusive [activator, single point]
N/C(=N\OC(=O)Cc1ccc([N+](=O)[O-])cc1)c1ccccn1	inconclusive [inhibitor, single point]
C=CCCN(Cc1ccc(OC)cc1)S(=O)(=O)c1ccccc1Br	inconclusive [activator, partial curve]
C=C(C)C(=O)c1cccs1	inconclusive [activator, single point]
COc1ccc(O)c(/C=N/Nc2nc(Nc3ccccc3)nc(-n3nc(C)cc3C)n2)c1	inconclusive [inhibitor, single point]
O=C(COC(=O)c1cnc(Cl)c(Cl)c1)NCc1ccco1	inconclusive [inhibitor, single point]
Oc1ccccc1/C=N/Nc1nn[nH]n1	inconclusive [inhibitor, partial curve]
CCCc1cc(=O)[nH]c(SCc2cc(C(=O)OC)c(C)o2)n1	inactive
NC1(C(=O)O)CCc2cc(P(=O)(O)O)ccc21 (stereo unspecified)	inconclusive [inhibitor, single point]
O=C(OCCN1C(=O)c2cccc3c(N4CCOCC4)ccc(c23)C1=O)c1ccc(Cl)cc1Cl	inconclusive [activator, partial curve]
S=c1[nH]nc(-c2n[nH]c3c2CCC3)n1/N=C/C=C/c1ccco1	inconclusive [inhibitor, partial curve]
CC(C)(C)c1cc(C(=O)NNC(=O)c2ccc(Cl)cc2)no1	inactive
Cc1sc(N/N=C/c2cc([N+](=O)[O-])ccc2O)nc1-c1ccccc1	inactive
CCC1=C(OC(=O)N(CC)CC)N2C(=O)OC(=NCCc3c[nH]c4ccccc34)[C@]2(Cc2ccccc2)[C@H]2C1=CC[C@H]1C(=O)N(c3ccccc3)C(=O)[C@H]12	inconclusive [inhibitor, single point]
Cc1ccc(N)c(N)c1	inconclusive [inhibitor, single point]
Cc1ccnc(SCC(=O)N2CCc3ccccc3C2)n1	inactive
COc1cccc(C(=O)Oc2c(CN3CCOCC3)cc(Cl)c3cccnc23)c1	inconclusive [inhibitor, partial curve]
O=C1OC(c2ccc(F)cc2)=C/C1=C\c1ccc([N+](=O)[O-])o1	inconclusive [inhibitor, single point]
O=[N+]([O-])c1ccc(CCO)cc1	inactive
COc1cccc(CN2CCNC(=O)C2CC(=O)NCCn2cccn2)c1OC (stereo unspecified)	inactive
CCn1c(NCc2ccc(N(C)C)cc2)nc2ccccc21	inactive
CCn1c(SCC(=O)NC2CCS(=O)(=O)C2)nnc1-c1ccccc1 (stereo unspecified)	inconclusive [activator, partial curve]
Cc1cc(C(=O)COc2cccc(-n3cnnn3)c2)c(C)n1-c1ccccc1	inactive
